Data on 4 molecules can be found in patent publication US20210380699A1 (published 2021).

In general, Kd refers to the equilibrium constant for the complex coming apart. Usually IC50 stands for the midpoint of a concentration-inhibition curve. A higher IC50 goes with weaker potency in that assay.

Experiment [1] has as its target T1, Human PD-L1 His (human PD-L1 ECD with C-terminal His tag) (human, UniProt Q9NZQ7 part only).
T1 construct: Biotinylated in ELISA and AlphaScreen assays; also called hPD-L1-his; biotinylated PD-L1 his
Briefly: SPR 25C, antibody captured, PD-L1 analyte.

Experiment [2] has as its target T1, Human PD-L1 His (human PD-L1 ECD with …). Briefly: ELISA, biotin-PD-L1 to plate-bound CD80, antibody titrated. As for the experimental part: (§1) Excess protein was removed by washing with PBS-Tween (0.1% v/v) and the wells were blocked with 1% w/v bovine serum albumin (BSA, Sigma) in PBS for 1 hour at room temperature, after which plates were washed as described previously. 60 μL of a titration (three-fold dilutions from 100 nM) of antibody was added to a 96-well, non-binding plate diluted in ELISA assay buffer (PBS+0.1% BSA). […] The plate was incubated for 30 min before transferring 50 μL to the coated plates.
(§2) The coated plates were incubated for 1 hour at room temperature. Excess protein was removed by washing with PBS-Tween (0.1% v/v). PD-L1 binding was detected using streptavidin labelled Europium (Perkin Elmer) diluted 1/1000 in DELFIA assay buffer (Perkin Elmer). The plates were washed with TBS (Tris buffered saline)-Tween (0.1% v/v) and 50 μL/well of DELFIA Enhancement solution (Perkin Elmer) was added to the plate. The time-resolved fluorescence was measured at 615 nm on an Envision plate reader (PerkinElmer). Percentage specific binding was calculated as defined in Equation 3.

The target is the same in experiment [3]. Kind of experiment: ELISA, biotin-PD-L1 to plate-bound PD-1, antibody titrated. As for the experimental part:
as §1, §2
For orientation: In an ELISA, binding on a coated surface is turned into a signal by an enzyme label.

Experiment [4] shares this target. Briefly: SPR 25C, antibody captured, PD-L1 analyte. As for the experimental part: Label-free surface plasmon resonance (SPR) analysis was carried out on the ProteOn XPR36 (BioRad) array SPR machine. An anti-human IgG capture surface was created on a GLC biosensor chip using amine coupling of an anti-human IgG from GE Healthcare. […] The assay was carried out at 25° C. using HBS-EP (Teknova H8022). Buffer alone was used to reference the binding sensorgrams. The data was analysed using the 1:1 model inherent to the ProteOn XPR36 analysis software.
The source holds these as a separate data set.

The target of experiment [5] is T2, Human PD-L1 expressed on cells (human, UniProt Q9NZQ7).
T2 construct: One entry used for transfected and natively expressing cells; also called CHO-S hPD-L1; CHO human PD-L1
Briefly: flow cytometry on CHO hPD-L1 cells, competitor biotin-CD80-Fc. On the procedure:
(§3) Plates were centrifuged at 300×g for 3 minutes to supernatant aspirated. […] Cells were washed with 150 μL of PBS and centrifuged at 300 g for 3 minutes. Supernatant was aspirated and 150 μL PBS added. This wash step was repeated.
(In general: Flow cytometry measures light scatter and fluorescence of single cells or particles in a stream.)

In experiment [6] the target is T2, Human PD-L1 expressed on cells. Briefly: flow cytometry on CHO hPD-L1 cells, competitor biotin-CD80-Fc, n = 1. As for the experimental part: (§4) 150 μL FACS buffer is added and cells washed as described above. […] Cells are incubated at 4° C. for 60 minutes. Cells are washed twice with 150 μL FACS buffer, centrifuging at 300 g for 3 minutes after each wash step and aspirating supernatant. Cells are fixed, washed and resuspended for analysis as above. APC signal intensity (geometric mean) is measured by flow cytometry using a Beckman Coulter CYTOFLEX instrument. Data is plotted as percentage of receptor binding.
All other steps are performed as per plate 2.

For experiment [7] the target is unchanged. Briefly: flow cytometry on CHO hPD-L1 cells, competitor biotin-PD-1-Fc, n = 2. On the procedure: as §4
In experiment [8] the target is T3, Cyno PD-L1 FLAG (cynomolgus PD-L1 ECD with FLAG tag) (cynomolgus monkey).
T3 construct: also called cynomolgus monkey PD-L1-FLAG
Briefly: SPR 37C, antibody captured, PD-L1 analyte. As for the experimental part:
(§5) Label-free surface plasmon resonance (SPR) analysis was carried out on the ProteOn XPR36 (BioRad) array SPR machine. An anti-human IgG capture surface was created on a GLC biosensor chip using a combination of anti-human Fc antibodies (Jackson Labs 09-005-008,109-006-008 and 309-006-008) by amine coupling. […] The data was analysed using the 1:1 model inherent to the ProteOn XPR36 analysis software.
(§6) Label-free surface plasmon resonance (SPR) analysis was performed as per Example 4, except the assay was performed at 37° C.

Experiment [9] has as its target T1, Human PD-L1 His (human PD-L1 ECD with …). Kind of experiment: SPR 37C, antibody captured, PD-L1 analyte. As for the experimental part: as §5, §6
The target in experiment [10] is T2, Human PD-L1 expressed on cells. Briefly: cell-based or functional assay.
Another experiment has as its target T4, PD-L2-Fc (R&D Systems) (UniProt Q9BQ51 20-219, limits assumed).
T4 construct: not shown: Fc of the bought protein
T4 sequence (looked up): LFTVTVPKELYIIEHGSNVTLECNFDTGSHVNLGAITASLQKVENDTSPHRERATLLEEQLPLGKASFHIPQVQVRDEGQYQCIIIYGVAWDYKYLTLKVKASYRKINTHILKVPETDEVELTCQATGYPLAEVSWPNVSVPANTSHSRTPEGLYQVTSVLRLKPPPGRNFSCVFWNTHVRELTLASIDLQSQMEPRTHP
Briefly: DELFIA plate assay, biotinylated antibody on plate-bound PD-L2-Fc. As for the experimental part: Excess protein was removed by washing with PBS-Tween (0.1% v/v) and the wells were blocked with 250 μL/well Pierce Protein Free Blocking Buffer (Thermo, 37572) for 1 hour, after which plates were washed as described previously. […] 100 μL each antibody dilution was added to the plates in duplicate and incubated for 1 hour at room temperature, before washing as stated above. Antibody binding was detected using streptavidin labelled Europium (Perkin Elmer) diluted 1/1000 in DELFIA Assay buffer (Perkin Elmer). Plates were washed with TBS (Tris buffered saline)-Tween (0.1% v/v) and 50 μL/well of DELFIA Enhancement solution (Perkin Elmer) was added to the plate. Time-resolved fluorescence was measured at 615 nm on an Envision plate reader (PerkinElmer).

For experiment [11], the target named is T2, Human PD-L1 expressed on cells. Kind of experiment: flow cytometry on CHO hPD-L1 cells, competitor biotin-PD-1-Fc. As for the experimental part: as §3
For experiment [12] the target is unchanged. Briefly: cell-based or functional assay. The source holds these as a separate data set.
For experiment [13], the target named is T1, Human PD-L1 His (human PD-L1 ECD with …). Briefly: ELISA, biotin-PD-L1 to plate-bound PD-1, antibody titrated. On the procedure: Excess protein was removed by washing with PBS-Tween (0.1% v/v) and the wells were blocked with 1% w/v bovine serum albumin (BSA, Sigma) in PBS for 1 hour at room temperature, after which plates were washed as described previously. […] The plate was incubated for 30 minutes before transferring 50 μL to the coated plates. The coated plates were incubated for 1 hour at room temperature. Excess protein was removed by washing with PBS-Tween (0.1% v/v). PD-L1 binding was detected using streptavidin labelled Europium (Perkin Elmer) diluted 1/1000 in DELFIA assay buffer (Perkin Elmer). Plates were washed with TBS (Tris buffered saline)-Tween (0.1% v/v) and 50 μL/well of DELFIA Enhancement solution (Perkin Elmer) was added to the plate. Time-resolved fluorescence was measured at 615 nm on an Envision plate reader (PerkinElmer).
This is another data set of the same source.

The target of experiment [14] is T2, Human PD-L1 expressed on cells. Kind of experiment: flow cytometry on CHO hPD-L1 cells, competitor biotin-PD-1-Fc, n = 1. On the procedure:
as §4

Experiment [15] has the same target. Briefly: cell-based or functional assay. The source holds these as a separate data set.

T2 sequence (Q9NZQ7 19-290 limits assumed): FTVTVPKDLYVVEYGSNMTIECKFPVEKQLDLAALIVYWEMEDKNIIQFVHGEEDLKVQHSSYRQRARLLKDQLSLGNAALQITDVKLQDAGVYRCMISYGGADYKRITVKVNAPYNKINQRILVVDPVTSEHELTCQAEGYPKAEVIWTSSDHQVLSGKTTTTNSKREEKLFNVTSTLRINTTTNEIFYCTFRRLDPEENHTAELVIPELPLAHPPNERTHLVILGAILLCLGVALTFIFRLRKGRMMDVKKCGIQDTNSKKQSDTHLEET

B1: 1D05 - IgG1 disabled (LAGA) (antibody)
heavy: EVQLVESGGGLVQPGRSLRLSCAASGFTFDDYAMHWVRQVPGKGLEWVSGISWIRTGIGYADSVKGRFTIFRDNAKNSLYLQMNSLRAEDTALYYCAKDMKGSGTYGGWFDTWGQGTLVTVSS[human IgG1 constant region with L235A G237A (EU numbers) omitted]
light: [about 100 residues omitted][about 100 residues omitted]
notes: also called Antibody 1; 1D05 hIgG1 LAGA
Consider B1, for which, in experiment [1], the Kd was found to be 0.35 nM.

B2: 1D05 D1-9 ICK (other)
heavy: B1 heavy
light: [about 100 residues omitted]RTVAAPSVFIFPPSDEQLKSGTASVVCLLNNFYPREAKVQWKVDNALQSGNSQESVTEQDSKDSTYSLSSTLTLSKADYEKHKVYACEVTHQGLSSPVTKSFNRGECTQLQLEHLLLDLQMILNGINNYKNPKLTRMLTFKFYMPKKATELKHLQCLEEELKPLEEVLNLAQSKNFHLRPRDLISNINVIVLELKGSETTFMCEYADETATIVEFLNRWITFCQSIISTLT
notes: immunocytokine, IL-2 variant on light chain C-terminus; also called 1D05 IC46 (D1-9)
In the case of B2, the results for the IC50 in experiment [2] and in experiment [3] were 1.07 nM and 1.75 nM, respectively. Also, in experiment [4], binding was put at a Kd of 0.195 nM.

B3: 1D05 (human IgG1) (antibody)
heavy: EVQLVESGGGLVQPGRSLRLSCAASGFTFDDYAMHWVRQVPGKGLEWVSGISWIRTGIGYADSVKGRFTIFRDNAKNSLYLQMNSLRAEDTALYYCAKDMKGSGTYGGWFDTWGQGTLVTVSS[human IgG1 constant region omitted]
light: [about 100 residues omitted][about 100 residues omitted]
notes: also called clone 1D05; lead antibody
As to B3, the IC50 in [5] is 1.18 nM; in [6], 1.15 nM; in [7], 1.46 nM; in experiment [11], 2.21 nM; in experiment [13], 5.21 nM; in [14], 1.27 nM. In addition, the dissociation constant (Kd) in experiment [8] stood at 0.43 nM; in experiment [9] it was 0.42 nM. In [10], the “EC50, IL-2 induction, murine T cell hybridoma assay, n = 1” value is 0.33 nM. In addition, the “EC50, IL-2 induction, murine T cell hybridoma assay, n = 2” value in experiment [10] was determined as 0.21 nM. Also, in [10], the “EC50, IL-2 induction, murine T cell hybridoma assay, n = 3” value was 0.21 nM. In addition, the binding result with PD-L2-Fc (R&D Systems) is listed as “no binding (tested: 10 µg/mL top concentration)”. Also, the “mean EC50, IFNγ induction, monocyte-T cell co-culture” value in experiment [12] turned out to be 0.21 nM. In addition, the “EC50, ADCC reporter assay, n = 1” value in [15] came out at 0.0241 nM. Further, the “EC50, ADCC reporter assay, n = 2” value in experiment [15] was 0.0215 nM. The “EC50, ADCC reporter assay, n = 3” value in [15] was determined as 0.0347 nM.

B4: 1D05 D9-7 ICK (other)
heavy: B1 heavy
light: [about 100 residues omitted]RTVAAPSVFIFPPSDEQLKSGTASVVCLLNNFYPREAKVQWKVDNALQSGNSQESVTEQDSKDSTYSLSSTLTLSKADYEKHKVYACEVTHQGLSSPVTKSFNRGECAPTSSSTQLQLEHLLLDLQMILNGINNYKNPKLTRMLTFKFYMPKKATELKHLQCLEEELKPLEEVLNLAQSKNFHLRPRDLISNINVIVLELKGSETTFMCEYADETATIVEFLNRWITFCQSIISTLT
notes: immunocytokine, IL-2 variant on light chain C-terminus; also called 1D05 LC D9-7 ICK
In the case of B4, the IC50 in [2] was determined as 0.7 nM; in experiment [3] it was 1.15 nM. Besides, in [4], the Kd came out at 0.2 nM.
